Data: article PMC5074247 (Biopharmaceutics & Drug Disposition, 2016)
Further values from the same series stand in other lists.

Test: Tissue distribution of radioactivity in SD rats
Assay type: in vivo, Sprague–Dawley rats
Conditions: oral 1 mg/kg

Concentration of radioactivity (Blood, 0.5 h): 209.9 ± 57.1 ng eq/ml or g
Concentration of radioactivity (Blood, 5 h): 29.9 ± 13.7 ng eq/ml or g
Concentration of radioactivity (Blood, 12 h): 9.3 ± 2.1 ng eq/ml or g
Concentration of radioactivity (Blood, 24 h): 3.9 ± 0.4 ng eq/ml or g
Concentration of radioactivity (Blood, 168 h): 0.6 ± 0.7 (N.C.) ng eq/ml or g
Concentration of radioactivity (Bone marrow, 0.5 h): 880.0 ± 223.0 ng eq/ml or g
Concentration of radioactivity (Bone marrow, 5 h): 289.9 ± 63.9 ng eq/ml or g
Concentration of radioactivity (Bone marrow, 12 h): 159.2 ± 15.7 ng eq/ml or g
Concentration of radioactivity (Bone marrow, 24 h): 98.6 ± 7.0 ng eq/ml or g
Concentration of radioactivity (Bone marrow, 72 h): 30.7 ± 5.7 (N.C.) ng eq/ml or g
Concentration of radioactivity (Bone marrow, 168 h): 7.0 ± 4.9 (N.C.) ng eq/ml or g
Concentration of radioactivity (Bone, 24 h): 11.8 ± 3.1 ng eq/ml or g
Concentration of radioactivity (Bone, 72 h): 3.4 ± 0.9 (N.C.) ng eq/ml or g
Concentration of radioactivity (Bone, 168 h): 0.6 ± 0.7 (N.C.) ng eq/ml or g
Concentration of radioactivity (Brain, 0.5 h): 24.4 ± 5.3 ng eq/ml or g
Concentration of radioactivity (Brain, 5 h): 7.7 ± 2.6 ng eq/ml or g
Concentration of radioactivity (Brain, 12 h): 3.3 ± 0.7 ng eq/ml or g
Concentration of radioactivity (Brown fat, 0.5 h): 501.8 ± 157.5 ng eq/ml or g
Concentration of radioactivity (Brown fat, 5 h): 134.2 ± 55.8 ng eq/ml or g
Concentration of radioactivity (Brown fat, 12 h): 57.6 ± 10.4 ng eq/ml or g
Concentration of radioactivity (Brown fat, 24 h): 26.9 ± 2.8 ng eq/ml or g
Concentration of radioactivity (Brown fat, 72 h): 7.5 ± 1.3 (N.C.) ng eq/ml or g
Concentration of radioactivity (Brown fat, 168 h): 3.0 ± 1.1 (N.C.) ng eq/ml or g
Concentration of radioactivity (Cecum, 0.5 h): 332.4 ± 101.9 ng eq/ml or g
Concentration of radioactivity (Cecum, 5 h): 1103.8 ± 713.4 ng eq/ml or g
Concentration of radioactivity (Cecum, 12 h): 627.2 ± 294.5 ng eq/ml or g
Concentration of radioactivity (Cecum, 24 h): 123.4 ± 23.7 ng eq/ml or g
Concentration of radioactivity (Cecum, 72 h): 12.8 ± 2.7 (N.C.) ng eq/ml or g
Concentration of radioactivity (Cecum, 168 h): 5.6 ± 2.5 (N.C.) ng eq/ml or g
Concentration of radioactivity (Eyeball, 0.5 h): 107.9 ± 27.9 ng eq/ml or g
Concentration of radioactivity (Eyeball, 5 h): 39.0 ± 11.9 ng eq/ml or g
Concentration of radioactivity (Eyeball, 12 h): 17.4 ± 3.8 ng eq/ml or g
Concentration of radioactivity (Eyeball, 24 h): 8.4 ± 0.9 ng eq/ml or g
Concentration of radioactivity (Eyeball, 72 h): 1.5 ± 0.3 (N.C.) ng eq/ml or g
Concentration of radioactivity (Fat, 0.5 h): 120.4 ± 28.3 ng eq/ml or g
Concentration of radioactivity (Fat, 5 h): 33.3 ± 9.7 ng eq/ml or g
Concentration of radioactivity (Fat, 12 h): 17.2 ± 2.8 ng eq/ml or g
Concentration of radioactivity (Fat, 24 h): 7.8 ± 1.2 ng eq/ml or g
Concentration of radioactivity (Fat, 72 h): 2.2 ± 1.5 (N.C.) ng eq/ml or g
Concentration of radioactivity (Large intestine (excluding the cecum), 0.5 h): 416.0 ± 110.3 ng eq/ml or g
Concentration of radioactivity (Large intestine (excluding the cecum), 5 h): 342.6 ± 160.7 ng eq/ml or g
Concentration of radioactivity (Large intestine (excluding the cecum), 12 h): 475.8 ± 195.4 ng eq/ml or g
Concentration of radioactivity (Large intestine (excluding the cecum), 24 h): 120.7 ± 13.9 ng eq/ml or g
Concentration of radioactivity (Large intestine (excluding the cecum), 72 h): 19.6 ± 3.5 (N.C.) ng eq/ml or g
Concentration of radioactivity (Large intestine (excluding the cecum), 168 h): 7.4 ± 3.3 (N.C.) ng eq/ml or g
Concentration of radioactivity (Medulla oblongata, 0.5 h): 26.6 ± 6.0 ng eq/ml or g
Concentration of radioactivity (Medulla oblongata, 5 h): 9.3 ± 4.5 ng eq/ml or g
Concentration of radioactivity (Medulla oblongata, 12 h): 3.0 ± 0.3 ng eq/ml or g
Concentration of radioactivity (Mesenteric lymph nodes, 0.5 h): 853.9 ± 176.8 ng eq/ml or g
Concentration of radioactivity (Mesenteric lymph nodes, 5 h): 269.9 ± 46.4 ng eq/ml or g
Concentration of radioactivity (Mesenteric lymph nodes, 12 h): 128.0 ± 21.0 ng eq/ml or g
Concentration of radioactivity (Mesenteric lymph nodes, 24 h): 77.9 ± 9.6 ng eq/ml or g
Concentration of radioactivity (Mesenteric lymph nodes, 72 h): 22.6 ± 3.3 (N.C.) ng eq/ml or g
Concentration of radioactivity (Mesenteric lymph nodes, 168 h): 9.2 ± 2.2 (N.C.) ng eq/ml or g
Concentration of radioactivity (Pituitary, 0.5 h): 1412.4 ± 316.0 ng eq/ml or g
Concentration of radioactivity (Pituitary, 5 h): 406.6 ± 198.9 ng eq/ml or g
Concentration of radioactivity (Pituitary, 12 h): 149.8 ± 20.6 ng eq/ml or g
Concentration of radioactivity (Pituitary, 24 h): 68.6 ± 11.7 ng eq/ml or g
Concentration of radioactivity (Pituitary, 72 h): 13.0 ± 15.0 (N.C.) ng eq/ml or g
Concentration of radioactivity (Plasma, 0.5 h): 266.5 ± 74.9 ng eq/ml or g
Concentration of radioactivity (Plasma, 5 h): 37.2 ± 17.3 ng eq/ml or g
Concentration of radioactivity (Plasma, 12 h): 10.0 ± 2.1 ng eq/ml or g
Concentration of radioactivity (Plasma, 24 h): 4.5 ± 0.3 ng eq/ml or g
Concentration of radioactivity (Small intestine, 0.5 h): 4476.6 ± 1778.8 ng eq/ml or g
Concentration of radioactivity (Small intestine, 5 h): 2688.4 ± 1240.2 ng eq/ml or g
Concentration of radioactivity (Small intestine, 12 h): 344.0 ± 52.7 ng eq/ml or g
Concentration of radioactivity (Small intestine, 24 h): 179.7 ± 29.3 ng eq/ml or g
Concentration of radioactivity (Small intestine, 72 h): 57.8 ± 11.4 (N.C.) ng eq/ml or g
Concentration of radioactivity (Small intestine, 168 h): 34.8 ± 13.0 (N.C.) ng eq/ml or g
Concentration of radioactivity (Stomach, 0.5 h): 2193.4 ± 953.1 ng eq/ml or g
Concentration of radioactivity (Stomach, 5 h): 243.1 ± 117.9 ng eq/ml or g
Concentration of radioactivity (Stomach, 12 h): 47.6 ± 12.0 ng eq/ml or g
Concentration of radioactivity (Stomach, 24 h): 21.7 ± 1.7 ng eq/ml or g
Concentration of radioactivity (Stomach, 72 h): 4.2 ± 1.5 (N.C.) ng eq/ml or g
Concentration of radioactivity (Stomach, 168 h): 1.3 ± 1.6 (N.C.) ng eq/ml or g
Compound: Cc1cc(N2CCN([C@@H]3CN[C@H](C(=O)N4CCSC4)C3)CC2)n(-c2ccccc2)n1 [Teneligliptin, 3‐[(2S,4S)‐4‐[4‐(3‐methyl‐1‐phenyl‐1H‐pyrazol‐5‐yl)piperazin‐1‐yl]pyrrolidin‐2‐ylcarbonyl] thiazolidine]
